Substitutions are numbered along the chain they refer to; changes in the protein carry UniProt numbers. This is one part of the list.

First the molecules themselves.
T1: RBFOX1 RRM (Homo sapiens, UniProt Q9NWB1 109-208)
T1 sequence: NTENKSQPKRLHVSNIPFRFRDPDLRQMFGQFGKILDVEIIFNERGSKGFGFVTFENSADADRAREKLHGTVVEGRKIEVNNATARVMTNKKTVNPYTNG

B1: UCCAAGC (DNA:RNA)
RNA: GGGAGACCGGAAUUCAGAUUGUCCUCCAAGCUUAAAUCCCGUCGUAGCCACCA
DNA 1: CAATCTGAATTCCGGTCTCCC
DNA 2: TGGTGGCTACGACGGGATT
B2: UGUGAGG (DNA:RNA)
RNA: B1 RNA with C26G, C27U, A28G, C31G
DNA 1: CAATCTGAATTCCGGTCTCCC
DNA 2: TGGTGGCTACGACGGGATT
B3: GUAGCAC (DNA:RNA)
RNA: B1 RNA with U25G, C26U, C27A, A28G, A29C, G30A
DNA 1: CAATCTGAATTCCGGTCTCCC
DNA 2: TGGTGGCTACGACGGGATT
B4: UUCUCGA (DNA:RNA)
RNA: B1 RNA with C26U, A28U, A29C, C31A
DNA 1: CAATCTGAATTCCGGTCTCCC
DNA 2: TGGTGGCTACGACGGGATT
B5: AUAUAGA (DNA:RNA)
RNA: B1 RNA with U25A, C26U, C27A, A28U, C31A
DNA 1: CAATCTGAATTCCGGTCTCCC
DNA 2: TGGTGGCTACGACGGGATT
B6: ACCGGUG (DNA:RNA)
RNA: B1 RNA with U25A, A28G, A29G, G30U, C31G
DNA 1: CAATCTGAATTCCGGTCTCCC
DNA 2: TGGTGGCTACGACGGGATT
B7: CACUGAG (DNA:RNA)
RNA: B1 RNA with U25C, C26A, A28U, A29G, G30A, C31G
DNA 1: CAATCTGAATTCCGGTCTCCC
DNA 2: TGGTGGCTACGACGGGATT
B8: CUCCCUG (DNA:RNA)
RNA: B1 RNA with U25C, C26U, A28C, A29C, G30U, C31G
DNA 1: CAATCTGAATTCCGGTCTCCC
DNA 2: TGGTGGCTACGACGGGATT
B9: AGGGGGG (DNA:RNA)
RNA: B1 RNA with U25A, C26G, C27G, A28G, A29G, C31G
DNA 1: CAATCTGAATTCCGGTCTCCC
DNA 2: TGGTGGCTACGACGGGATT

The target of this assay is T1, RBFOX1 RRM. As to the kind of experiment: EMSA; HiTS-Eq, 1 nM pool, 10 min; buffer printed only for the single-RNA assays: 10 mM Tris pH 7.5, 150 mM NaCl, 3.4 mM EDTA, 0.001% NP-40, 30 C. The settings on record: tags: His6 N-terminal (pET28a); label: 5' 32P. The essentials:
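Purified RbFox RRM, wild type or mutant, was incubated for 10 min in 50 µL with 1 nM of a 5′-radiolabelled RNA pool carrying 7 randomized nucleotides, whose flanks were annealed to DNA oligonucleotides, over a series of increasing protein concentrations. Unbound RNA was resolved on 8% native PAGE, cut out, reverse-transcribed, barcoded by PCR and sequenced on an Illumina HiSeq 2500. Relative association constants were derived from changes in read counts for each RNA species versus the control reaction and normalised to the cognate motif.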
Background: A gel shift assay detects complexes by their altered migration in electrophoresis.
For the molecule B1, the binding signal was 0.0037 KA relative to UGCAUGU.
As for B2, the binding signal is 0.0123 KA relative to UGCAUGU.
Take B3: the binding signal was 0.0131 KA relative to UGCAUGU.
With B4 the figure was 0.0124 KA relative to UGCAUGU.
As for B5, the binding signal is 0.00586 KA relative to UGCAUGU.
With B6, the binding signal is 0.0128 KA relative to UGCAUGU.
With B7, the binding signal is 0.00996 KA relative to UGCAUGU.
On to B8, for which the binding signal is 0.00686 KA relative to UGCAUGU.
As for B9, the binding signal was 0.0198 KA relative to UGCAUGU.

The values are drawn from article PMC9911399, “Two distinct binding modes provide the RNA-binding protein RbFox with extraordinary sequence specificity”.
